From publication PMC7599196
These are yes or no findings as the source states them, for the method shown. For some assays here: Binding seen in cells or lysates may run through a third protein. Some entries that bind do so weakly or less than the wild type. For some assays here: Sequences can lack the tags named with a protein. One block for each molecule: values may come before it.

The chains behind the UniProt entries cited, without tags or fusion partners.
UniProt P16649: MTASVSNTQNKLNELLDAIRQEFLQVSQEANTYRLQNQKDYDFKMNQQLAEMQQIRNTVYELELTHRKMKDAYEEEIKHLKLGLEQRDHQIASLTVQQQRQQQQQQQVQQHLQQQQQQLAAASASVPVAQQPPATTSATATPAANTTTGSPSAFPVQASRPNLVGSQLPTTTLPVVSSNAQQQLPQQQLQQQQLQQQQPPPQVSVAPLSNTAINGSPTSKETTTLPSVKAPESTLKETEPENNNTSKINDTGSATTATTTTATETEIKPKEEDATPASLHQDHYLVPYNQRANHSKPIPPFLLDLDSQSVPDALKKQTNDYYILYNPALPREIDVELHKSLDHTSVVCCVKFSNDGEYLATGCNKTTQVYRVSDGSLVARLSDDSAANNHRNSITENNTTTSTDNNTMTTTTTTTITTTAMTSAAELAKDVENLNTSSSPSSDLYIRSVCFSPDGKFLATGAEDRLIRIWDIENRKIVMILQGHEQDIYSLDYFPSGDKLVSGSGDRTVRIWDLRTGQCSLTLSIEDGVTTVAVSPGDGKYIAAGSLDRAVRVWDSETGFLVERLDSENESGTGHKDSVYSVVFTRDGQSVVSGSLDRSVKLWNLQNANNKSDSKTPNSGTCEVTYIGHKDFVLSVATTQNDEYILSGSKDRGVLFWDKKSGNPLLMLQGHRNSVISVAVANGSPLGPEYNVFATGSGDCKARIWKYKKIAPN

Columns and labels:
[1] = target: T1, GST-Cti6 fusion protein (amino acids 1–506, comprising full length) (S. cerevisiae) (UniProt Q08923); assay: pull-down; GST fusion from E. coli immobilized on GSH Sepharose, incubated with pre-cleared total protein extract of E. coli BL21 containing the HA fusion (no yeast proteins); elution with 10 mM free GSH, anti-HA blot; only the target purified
T1 sequence: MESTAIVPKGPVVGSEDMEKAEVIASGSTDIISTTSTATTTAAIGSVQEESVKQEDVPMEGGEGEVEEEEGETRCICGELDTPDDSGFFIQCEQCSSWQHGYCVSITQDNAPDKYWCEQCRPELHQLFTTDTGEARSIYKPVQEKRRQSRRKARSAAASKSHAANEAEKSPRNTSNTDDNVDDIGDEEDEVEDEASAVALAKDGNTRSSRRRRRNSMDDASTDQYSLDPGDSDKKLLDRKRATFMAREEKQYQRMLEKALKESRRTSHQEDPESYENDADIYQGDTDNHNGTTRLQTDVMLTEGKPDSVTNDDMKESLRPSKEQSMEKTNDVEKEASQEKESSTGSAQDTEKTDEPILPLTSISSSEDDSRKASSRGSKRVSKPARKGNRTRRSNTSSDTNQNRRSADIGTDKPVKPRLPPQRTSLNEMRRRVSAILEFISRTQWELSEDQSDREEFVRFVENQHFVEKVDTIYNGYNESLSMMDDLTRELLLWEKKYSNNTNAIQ

[2] = target: T2, GST-Cti6_(450–506) L491A L492A L493A (S. cerevisiae) (UniProt Q08923); assay: pull-down; GST fusion from E. coli immobilized on GSH Sepharose, incubated with pre-cleared total protein extract of S. cerevisiae containing the HA fusion; washing with increasing stringency, elution with 10 mM free GSH, anti-HA blot; only the target purified
T2 sequence: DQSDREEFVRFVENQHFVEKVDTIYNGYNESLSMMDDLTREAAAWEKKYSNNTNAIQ

[3] = target: T3, GST-Cti6_(450–506) V467A (S. cerevisiae) (UniProt Q08923); assay: as above
T3 sequence: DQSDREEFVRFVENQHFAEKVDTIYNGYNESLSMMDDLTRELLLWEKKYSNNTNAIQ

[4] = target: T4, GST-Cti6_(450–506) L481A (S. cerevisiae) (UniProt Q08923); assay: as above
T4 sequence: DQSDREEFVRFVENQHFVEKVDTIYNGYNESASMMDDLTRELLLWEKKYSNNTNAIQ

[5] = target: T1, GST-Cti6 fusion protein (amino acids 1–506, comprising full length) (S. cerevisiae); assay: as above
[6] = target: T5, GST-Cti6_(450–506) (S. cerevisiae) (UniProt Q08923); assay: as above
T5 sequence: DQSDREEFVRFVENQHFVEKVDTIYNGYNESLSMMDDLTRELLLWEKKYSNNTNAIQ

[7] = target: T6, GST-Cti6 (aa 351–506) (S. cerevisiae) (UniProt Q08923); assay: as above
T6 sequence: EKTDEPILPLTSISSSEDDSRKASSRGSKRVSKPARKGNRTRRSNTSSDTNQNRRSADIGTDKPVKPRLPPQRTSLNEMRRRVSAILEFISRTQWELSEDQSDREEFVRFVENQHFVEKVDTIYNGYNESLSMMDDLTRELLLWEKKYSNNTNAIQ

[8] = target: T7, GST-Cti6 (aa 430–506) (S. cerevisiae) (UniProt Q08923); assay: as above
T7 sequence: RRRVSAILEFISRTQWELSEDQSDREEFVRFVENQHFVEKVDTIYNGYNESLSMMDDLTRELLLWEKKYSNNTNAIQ

[9] = target: T1, GST-Cti6 fusion protein (amino acids 1–506, comprising full length) (S. cerevisiae); assay: as above; remark: listed apart in the source
[10] = target: Gal4 DBD-Sin3 (aa 301–888) (S. cerevisiae) (UniProt P22579); assay: two-hybrid; strain PJ69-4A; Gal4 DBD-Sin3 (pGBD-C1) and Gal4 TAD-Cti6 (pGAD-C1); GAL2-ADE2 reporter, growth on medium without adenine, 48 h
[11] = target: T8, Gal4 DBD-Sin3 (aa 1–300, containing PAH1) (S. cerevisiae) (UniProt P22579); assay: as above
T8 sequence: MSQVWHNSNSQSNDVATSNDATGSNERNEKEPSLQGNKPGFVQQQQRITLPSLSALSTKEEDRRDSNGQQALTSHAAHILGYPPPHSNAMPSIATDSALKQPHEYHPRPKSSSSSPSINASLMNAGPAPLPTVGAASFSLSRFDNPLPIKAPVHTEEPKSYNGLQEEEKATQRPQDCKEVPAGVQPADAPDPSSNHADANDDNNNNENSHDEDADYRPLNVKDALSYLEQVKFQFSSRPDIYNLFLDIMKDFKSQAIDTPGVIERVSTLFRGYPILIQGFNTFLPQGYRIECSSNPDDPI

[12] = target: T5, GST-Cti6_(450–506) (S. cerevisiae); assay: pull-down; GST fusion from E. coli immobilized on GSH Sepharose, incubated with pre-cleared total protein extract of E. coli BL21 containing the HA fusion (no yeast proteins); elution with 10 mM free GSH, anti-HA blot; only the target purified

Molecule: HA3-Tup1 (full-length) (from UniProt P16649 1-713)
binding [1]: binds

Molecule: HA3-Sin3_(301–600), PAH2 (from UniProt P22579 301-600) (domain or fragment)
binding [2]: no binding | binding [3]: binds weakly | binding [4]: no binding | binding [5]: binds | binding [6]: binds

Molecule: HA3-Sin3 (full-length), synthesized by S. cerevisiae (from UniProt P22579 1-1536)
binding [7]: binds | binding [5]: binds | binding [6]: binds | binding [8]: binds

B1: HA-tagged Sin3 (aa 601–950) (domain or fragment, UniProt P22579 601-950)
chain: TSLTEQYAPSSIQHQQQHPQSISPIANTQYGDIPVRPEIDLDPSIVPVVPEPTEPIENNISLNEEVTFFEKAKRYIGNKHLYTEFLKILNLYSQDILDLDDLVEKVDFYLGSNKELFTWFKNFVGYQEKTKCIENIVHEKHRLDLDLCEAFGPSYKRLPKSDTFMPCSGRDDMCWEVLNDEWVGHPVWASEDSGFIAHRKNQYEETLFKIEEERHEYDFYIESNLRTIQCLETIVNKIENMTENEKANFKLPPGLGHTSMTIYKKVIRKVYDKERGFEIIDALHEHPAVTAPVVLKRLKQKDEEWRRAQREWNKVWRELEQKVFFKSLDHLGLTFKQADKKLLTTKQLIS
binding [9]: no binding

B2: HA-tagged Sin3 (aa 1–300), PAH1 (domain or fragment, UniProt P22579 1-300)
chain: MSQVWHNSNSQSNDVATSNDATGSNERNEKEPSLQGNKPGFVQQQQRITLPSLSALSTKEEDRRDSNGQQALTSHAAHILGYPPPHSNAMPSIATDSALKQPHEYHPRPKSSSSSPSINASLMNAGPAPLPTVGAASFSLSRFDNPLPIKAPVHTEEPKSYNGLQEEEKATQRPQDCKEVPAGVQPADAPDPSSNHADANDDNNNNENSHDEDADYRPLNVKDALSYLEQVKFQFSSRPDIYNLFLDIMKDFKSQAIDTPGVIERVSTLFRGYPILIQGFNTFLPQGYRIECSSNPDDPI
binding [9]: binds

B3: Gal4 TAD-Cti6 (aa 351–506) (domain or fragment, UniProt Q08923 351-506)
chain: EKTDEPILPLTSISSSEDDSRKASSRGSKRVSKPARKGNRTRRSNTSSDTNQNRRSADIGTDKPVKPRLPPQRTSLNEMRRRVSAILEFISRTQWELSEDQSDREEFVRFVENQHFVEKVDTIYNGYNESLSMMDDLTRELLLWEKKYSNNTNAIQ
binding [10]: binds | binding [11]: no binding

B6: Gal4TAD-Cti6_(450–506) (domain or fragment, UniProt Q08923 450-506)
chain: DQSDREEFVRFVENQHFVEKVDTIYNGYNESLSMMDDLTRELLLWEKKYSNNTNAIQ
binding [10]: binds | binding [11]: no binding

B7: Gal4 TAD-Cti6_(450-506) L491A L492A L493A (domain or fragment, UniProt Q08923 450-506)
chain: DQSDREEFVRFVENQHFVEKVDTIYNGYNESLSMMDDLTREAAAWEKKYSNNTNAIQ
binding [10]: no binding

B9: Gal4 TAD-Cti6_(450-506) L481A (domain or fragment, UniProt Q08923 450-506)
chain: DQSDREEFVRFVENQHFVEKVDTIYNGYNESASMMDDLTRELLLWEKKYSNNTNAIQ
binding [10]: no binding

B11: HA3-Cyc8 (aa 1–398, TPR-containing domain) (domain or fragment, UniProt P14922 1-398)
chain: MNPGGEQTIMEQPAQQQQQQQQQQQQQQQQAAVPQQPLDPLTQSTAETWLSIASLAETLGDGDRAAMAYDATLQFNPSSAKALTSLAHLYRSRDMFQRAAELYERALLVNPELSDVWATLGHCYLMLDDLQRAYNAYQQALYHLSNPNVPKLWHGIGILYDRYGSLDYAEEAFAKVLELDPHFEKANEIYFRLGIIYKHQGKWSQALECFRYILPQPPAPLQEWDIWFQLGSVLESMGEWQGAKEAYEHVLAQNQHHAKVLQQLGCLYGMSNVQFYDPQKALDYLLKSLEADPSDATTWYHLGRVHMIRTDYTAAYDAFQQAVNRDSRNPIFWCSIGVLYYQISQYRDALDAYTRAIRLNPYISEVWYDLGTLYETCNNQLSDALDAYKQAARLDVNN
binding [1]: binds | binding [12]: binds

Now from value to molecule:

binding [1]: binds
Molecule: HA3-Sin3 (full-length), bacterially synthesized (from UniProt P22579 1-1536)

binding [10]: binds | binding [11]: no binding
B4: Gal4 TAD-Cti6 (aa 430–506) (domain or fragment, UniProt Q08923 430-506)
chain: RRRVSAILEFISRTQWELSEDQSDREEFVRFVENQHFVEKVDTIYNGYNESLSMMDDLTRELLLWEKKYSNNTNAIQ

binding [9]: no binding
B5: HA-tagged Sin3 (aa 801–1100) (domain or fragment, UniProt P22579 801-1100)
chain: NQYEETLFKIEEERHEYDFYIESNLRTIQCLETIVNKIENMTENEKANFKLPPGLGHTSMTIYKKVIRKVYDKERGFEIIDALHEHPAVTAPVVLKRLKQKDEEWRRAQREWNKVWRELEQKVFFKSLDHLGLTFKQADKKLLTTKQLISEISSIKVDQTNKKIHWLTPKPKSQLDFDFPDKNIFYDILCLADTFITHTTAYSNPDKERLKDLLKYFISLFFSISFEKIEESLYSHKQNVSESSGSDDGSSIASRKRPYQQEMSLLDILHRSRYQKLKRSNDEDGKVPQLSEPPEEEPNT

binding [10]: no binding
B8: Gal4 TAD-Cti6_(450-506) V467A (domain or fragment, UniProt Q08923 450-506)
chain: DQSDREEFVRFVENQHFAEKVDTIYNGYNESLSMMDDLTRELLLWEKKYSNNTNAIQ

binding [9]: no binding
B10: HA-tagged Sin3 (aa 1101–1536) (domain or fragment, UniProt P22579 1101-1536)
chain: IEEEELIDEEAKNPWLTGNLVEEANSQGIIQNRSIFNLFANTNIYIFFRHWTTIYERLLEIKQMNERVTKEINTRSTVTFAKDLDLLSSQLSEMGLDFVGEDAYKQVLRLSRRLINGDLEHQWFEESLRQAYNNKAFKLYTIDKVTQSLVKHAHTLMTDAKTAEIMALFVKDRNASTTSAKDQIIYRLQVRSHMSNTENMFRIEFDKRTLHVSIQYIALDDLTLKEPKADEDKWKYYVTSYALPHPTEGIPHEKLKIPFLERLIEFGQDIDGTEVDEEFSPEGISVSTLKIKIQPITYQLHIENGSYDVFTRKATNKYPTIANDNTQKGMVSQKKELISKFLDCAVGLRNNLDEAQKLSMQKKWENLKDSIAKTSAGNQGIESETEKGKITKQEQSDNLDSSTASVLPASITTVPQDDNIETTGNTESSDKGAKIQ
